Measurements: US20130178523A1, “ANTI-CANCER COMPOSITIONS AND METHODS” (THE PENN STATE RESEARCH FOUNDATION, priority 2007, published 2013)

System: Akt signaling pathway
Experiment: Western blot of Akt signaling pathway in cultured melanoma cells (FIG. 9)
Settings: 2.5-15 μM, 24 hours; immunoblot FIG. 9

SMILES | phosphorylated (active) Akt (S473) and downstream PRAS40 (T246)
[Se]=C=NCCCCc1ccccc1 [ISC-4, Phenylbutyl Isoselenocyanate] | dose dependent decreases
[Se]=C=NCCCCCCc1ccccc1 [ISC-6, Phenylhexyl Isoselenocyanate] | dose dependent decreases
